“And” between values parts separate entries of the source, which are not always exact repeats. Equal entries are not always repeated. The whole screen tested about 16,000 compounds, of which about 40 (0.2%) were called active. About 1% were inconclusive and are not listed. Calls come from the whole dose curve; as a rule, active = well fitted activation curve with a large enough effect; inconclusive = small, poorly fitted or top-dose-only effect, or another doubt; inactive = no such curve, though single readings can be large or run the other way. This is one part of the list.

The source of these data is PubChem BioAssay AID1645887 (National Center for Advancing Translational Sciences (NCATS), 2021).
% is set by controls: 0 for no effect and ±100 for the full control effect.

UniProt Q8WZA2, sequence (Q8WZA2 whole entry, looked up): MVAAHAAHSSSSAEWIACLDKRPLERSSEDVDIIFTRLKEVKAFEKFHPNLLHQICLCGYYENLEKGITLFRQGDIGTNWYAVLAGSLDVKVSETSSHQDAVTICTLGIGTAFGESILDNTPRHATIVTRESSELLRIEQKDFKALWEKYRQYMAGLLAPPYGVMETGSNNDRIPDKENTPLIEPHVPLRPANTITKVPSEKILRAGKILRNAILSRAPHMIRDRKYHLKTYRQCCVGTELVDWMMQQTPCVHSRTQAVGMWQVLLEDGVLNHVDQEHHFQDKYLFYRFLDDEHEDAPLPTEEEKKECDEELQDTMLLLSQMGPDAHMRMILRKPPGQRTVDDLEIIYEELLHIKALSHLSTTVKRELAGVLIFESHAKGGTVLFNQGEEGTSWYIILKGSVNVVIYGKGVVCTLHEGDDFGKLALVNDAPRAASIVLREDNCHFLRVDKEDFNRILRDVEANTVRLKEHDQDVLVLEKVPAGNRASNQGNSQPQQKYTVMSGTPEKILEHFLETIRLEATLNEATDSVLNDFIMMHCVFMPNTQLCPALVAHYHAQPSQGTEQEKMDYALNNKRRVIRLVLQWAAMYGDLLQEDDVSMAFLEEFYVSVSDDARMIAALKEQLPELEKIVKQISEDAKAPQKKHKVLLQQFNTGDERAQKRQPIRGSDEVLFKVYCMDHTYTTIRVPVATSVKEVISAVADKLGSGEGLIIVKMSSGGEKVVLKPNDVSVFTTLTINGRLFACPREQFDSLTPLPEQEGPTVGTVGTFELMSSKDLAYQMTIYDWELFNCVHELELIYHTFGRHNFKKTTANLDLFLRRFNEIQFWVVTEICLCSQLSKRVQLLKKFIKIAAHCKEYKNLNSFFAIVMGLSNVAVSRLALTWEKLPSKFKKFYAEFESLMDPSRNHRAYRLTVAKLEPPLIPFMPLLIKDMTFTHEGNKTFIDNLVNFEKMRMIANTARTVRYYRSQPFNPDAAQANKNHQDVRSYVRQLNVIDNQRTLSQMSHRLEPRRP

The target of the experiment is Rap guanine nucleotide exchange factor 4 (Homo sapiens) (UniProt Q8WZA2). Kind of experiment: Validation qHTS for agonist of cAMP-regulated guanine nucleotide exchange factor 4 (EPAC2).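 Note: exchange makes BODIPY-GDP fluorescence drop when released from Rap1B; series mostly up to about 150 µM.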 The note with it: EPAC2 Rap1B BODIPY-GDP exchange, fluorescence; activation: stronger effect = higher value. The method in brief:
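Signal normalized against 6.5 mM cAMP as agonist control. Mix of EPAC2 (100 nM), RAP1B-BODIPY-GDP (250 nM) and GDP (50 uM) was read kinetically at 480/540 nm, every 5 min over 30 min, after 5 min room-temperature incubation with compound.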
Consider `CCO/N=C(\CC)C1=C(O)CC(c2c(C)cc(C)cc2C)CC1=O` (stereo not given), for which the activation is inactive: -17.8%.
For `C=C1[C@@H](C)[C@H]2[C@H](Cc3ccccc3)NC(=O)[C@]23OC(=O)/C=C/[C@H](O)CCC[C@@H](C)C/C=C/[C@H]3[C@@H]1O`, the activation is inactive: -7.65%.
For `Nc1ccccc1` the value was inactive: 14.7%.
As to `CCOC(=O)[C@]12Cc3cc(OC)ccc3[C@H]1N(Cc1ccccc1)C(=O)c1ccccc12`, the activation is inactive: -21.8%.
For `CCOC(OCC)P(=O)(O)CCCN` the value was inactive: -13.4% and inactive: -8.82%; for `ClC1=C(Cl)C2(Cl)C3C4C=CC(C4)C3C1(Cl)C2(Cl)Cl` (stereo not given), inactive: -38.8%.
Consider `c1cncc([C@H]2CCCCN2)c1`, for which the activation is inactive: 3.75%.
As to `CC[N+]1(CCOC(=O)C(O)(c2ccccc2)c2ccccc2)CCCCC1`, the activation was inactive: -12.7%.
Take `C/C=C(/C)C(=O)OC1CC[C@]2(C)C3CCC4[C@]5(O)CC(O)[C@]6(O)C(CN7CC(C)CCC7[C@]6(C)O)[C@]5(O)C[C@@]42O[C@]13O` (stereo not given in full): the activation is inactive: -12%.
For the compound `Cc1c(Cl)c(=O)oc2cc(OP(=O)(OCCCl)OCCCl)ccc12`, the activation was inactive: 1.63%.
With `COc1ccc(C(=O)O[C@H]2CC[C@@]3(C)C4CCC5[C@]6(O)C[C@H](O)[C@@]7(O)C(CN8C[C@@H](C)CC[C@H]8[C@@]7(C)O)[C@]6(O)C[C@@]53O[C@@]42O)cc1OC` (stereo not given in full), the activation is inactive: -1.27% and inactive: 4.24%.
In the case of `COC(=O)COc1cc(Cl)c(Cl)cc1Cl`, the activation was inactive: -5.32%.
For `CN(C)C1C(=O)C(C(N)=O)=C(O)[C@@]2(O)C(=O)C3=C(O)c4c(O)cccc4[C@](C)(O)C3C(O)C12` (stereo not given in full) the value was inactive: -8.93%; for `C[N+]1(C)[C@@H]2CC[C@H]1CC(OC(=O)C(CO)c1ccccc1)C2` (stereo not given in full), inactive: 4.62% and inactive: -1.37%; for `CC(=O)OCC1=C(C(=O)O)N2C(=O)[C@@H](NC(=O)CCC[C@@H](N)C(=O)O)[C@H]2SC1`, inactive: -31%.
Consider `CC1(C)S[C@@H]2[C@H](N)C(=O)N2[C@H]1C(=O)O`, for which the activation is inactive: -17.6%.
`COc1c2c(cc3c1OCO3)CC[N+](C)=C2`: the activation was inactive: -0.261% and inactive: 5.7%.
Regarding `CN1C(=O)COc2c(C(=O)NC3CN4CCC3CC4)cc(Cl)cc21` (stereo not given), the activation was inactive: -3.72%.
In the case of `CCN(CC)CCO[C@H]1CC[C@@]2(C)C(=CC[C@@H]3[C@@H]2CC[C@]2(C)C(=O)CC[C@@H]32)C1`, the activation is inactive: -8.37%.
Take `Cc1ccc(S(=O)(=O)N[C@@H](CCCCN)C(=O)CCl)cc1`: the activation was inactive: -5.83% and inactive: -71.6%.
